# Laboratory results published in PubChem BioAssay AID1508623 (National Center for Advancing Translational Sciences (NCATS), 2021).
# Hit rate of the full screen: of about 48,000 compounds, about 450 (0.94%) were called active. Roughly 19% stayed inconclusive and do not appear here. Calls come from the whole dose curve; as a rule, active = well fitted inhibition curve with a large enough effect; inconclusive = small, poorly fitted or top-dose-only effect; inactive = no such curve, though single readings can be large or run the other way. The list shows a part of the results.
# Experiment: Primary qHTS for Identification of Small Molecule Inhibitors of Huntingtin Promoter Activity; note: nearly all actives have a fitted effect of over 50% in size
# Conditions: HEK293 HTT promoter firefly luciferase reporter (activity 0% = vehicle and -100% = no light), 24 h; activity change, negative = inhibition: at the top concentration
# How it was run: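 HEK293 Fluc reporter, 2,500 cells/well, 24 h pre-culture; cpds up to 57.5 uM final, 24 h 37 degrees C; Dual-Glo, 10 min RT; normalized vehicle = 0%, zero RLU = -100%.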
row,SMILES,"activity change, negative = inhibition"
1,CC1(C)CC/C(=C/c2ccc(Cl)cc2)C1(O)Cn1cncn1 (stereo not drawn),inactive: -18.2% [at 116 µM]
2,CCOc1ccc(CN(CCc2ccc3c(c2)OCO3)Cc2ccc(C)cc2)cc1,inactive: -21.9%
3,CC(C)Cc1nc2cccnc2n1C1CCNCC1,inactive: -16.3%
4,CCN(CC)C(C)C(=O)c1ccccc1 (stereo not drawn),inactive: 9.53%
5,COc1cc(CC#N)cc(OC)c1OC,inactive: 14.7%
6,CCC(C)C(C)(COC(N)=O)COC(N)=O (stereo not drawn),inactive: 4.33%
7,O=C(N[C@@H]1N=C(c2ccccc2F)c2cccc3c2N(CC3)C1=O)c1cc2ccccc2[nH]1,inactive: 6.43%
8,Cc1ccc(NC(=O)Cn2cc(C(=O)c3ccccc3)c3ccccc32)c(C)c1,inactive: -29.8%
9,CC1(C)C(C=C(Cl)Cl)C1C(=O)OC(C#N)c1cccc(Oc2ccccc2)c1 (stereo not drawn),inactive: -2.58%
10,Oc1cc(Cl)ccc1Oc1ccc(Cl)cc1Cl,inactive: -28%
11,CCCCC12CN3CC(C)(CN(C1)C3c1ccccn1)C2=O (stereo not drawn),inactive: -9.12%
12,CC=C(C)C(=O)N[C@@H](c1ccccc1)[C@@H](O)C(=O)O[C@H]1C[C@@]2(O)[C@@H](OC(=O)c3ccccc3)[C@@H]3[C@]4(OC(C)=O)CO[C@@H]4C[C@H](O)[C@@]3(C)C(=O)[C@H](OC(C)=O)C(=C1C)C2(C)C,inactive: -15.2%
13,O=C(Nc1ccc2c(c1)OCO2)c1cccn(Cc2cccc([N+](=O)[O-])c2)c1=O,inactive: -6.37%
14,O=S1(=O)N(Cc2ccccc2Cl)CCCN1Cc1ccccc1Cl,inactive: -22.5%
15,C1CN2CCC1CC2,inactive: -0.298%
16,Cc1ccccc1OCC(=O)N1CCN(CCc2ccccn2)CC1,inactive: -13.1% [at 11.5 µM]
17,CC1=C2[C@H]3OC(=O)[C@@H](C)[C@@H]3CC[C@@]2(C)C=CC1=O,inactive: -3.22%
18,O=[N+]([O-])c1c2ccccc2cc2ccccc12,inactive: 27.8% [at 116 µM]
19,CC(=O)Nc1ccc(OC[C@](C)(O)C(=O)Nc2ccc([N+](=O)[O-])c(C(F)(F)F)c2)cc1,inactive: -15.9%
20,COc1ccc2c3c1O[C@H]1[C@H](O)CC[C@H]4[C@@H](C2)N(C)CC[C@@]341,inactive: -12.7% [at 116 µM]
21,O=c1c2ccccc2nc(/C=C/c2ccccc2F)n1-c1cccc(O)c1,inactive: -4.12%
22,CCc1nc(SC)ncc1C(=O)Nc1ccc(Cl)cc1C(=O)c1ccccc1,inactive: -13.6%
23,Cc1cccc(-c2nn3c(=O)cc(CN4CCN(C(=O)COc5ccc(Cl)cc5)CC4)nc3s2)c1,inactive: -12.1%
24,CC(C)=CCN1CC[C@@]2(C)c3cc(O)ccc3C[C@@H]1[C@@H]2C,inactive: -7.32% [at 116 µM]
25,CC(C)(C)NCC(O)c1cc(Cl)c(N)c(Cl)c1 (stereo not drawn),inactive: 5.54%
26,CC(N[C@H]1C[C@H]1c1ccccc1)c1ccc2c(c1)OCCO2 (stereo partly drawn),inactive: 6.29%
27,C=C(C)[C@H]1Cc2c(ccc3c2O[C@@H]2COc4cc(OC)c(OC)cc4[C@@H]2C3=O)O1,inactive: -39.4%

row,SMILES,"activity change, negative = inhibition"
1,CN(C)c1ccc(NC(=O)c2sc3nc4c(cc3c2N)N2CCC4CC2)cc1,inactive: -6.53%
2,COC(=O)C1=CCCN(C)C1,inactive
3,O=C(NC(=O)c1c(F)cccc1F)Nc1cc(Cl)c(OC(F)(F)C(F)C(F)(F)F)cc1Cl (stereo not drawn),inactive: -8.06%
4,CNCC(=O)c1ccc(O)c(O)c1,inactive: -6.65%
5,COc1ccc(OCC(=O)N2CCN(CCc3ccncc3)CC2)cc1,inactive: -3.95%
6,NC1=NC(=O)N2CC12 (stereo not drawn),inactive: -2.75%
7,CCN(CC)C(=O)c1ccc(NC(=O)c2ccc(-c3nn(C)c(=O)c4ccccc34)cc2)cc1,inactive: -7.02%
8,CCC1(CC)C(=O)C=CNC1=O,inactive: 10.4%
9,COc1ccccc1C1SCC(=O)Nc2c1c(C)nn2-c1cccc(C)c1 (stereo not drawn),inactive: -35.1%
10,COc1ccc(Cc2nccc3cc(OC)c(OC)cc23)cc1OC,inactive
11,CCCC12CN3CC(C)(CN(C1)C3c1c(C)[nH]c(=O)[nH]c1=O)C2=O (stereo not drawn),inactive: -15.2%
12,COC(=O)[C@@H](N)CCCN=C(N)N[N+](=O)[O-],inactive: -25.1%
13,O=C(N/N=C/c1ccc([N+](=O)[O-])o1)c1cc([N+](=O)[O-])cc([N+](=O)[O-])c1O,inactive: -1.57%
14,Cc1ccc(-c2nn3c(=O)cc(CN4CCN(C(=O)COc5ccc(C)c(C)c5)CC4)nc3s2)cc1,inactive: -13.9%
15,CCCC1=Nc2cc(C(=O)NCCCN(CC)CC)ccc2Sc2ccccc21,inactive: -9.7%
16,CCc1ccc(OCC(=O)N2CCN(CCc3ccncc3)CC2)cc1,inactive: -7.2%
17,CC1NCCOC1c1ccccc1 (stereo not drawn),inactive: -8.33%
18,CCCN1CCC[C@@H]2Cc3[nH]ncc3C[C@H]21,inactive: 7.98%
19,C#CC(O)(C=CCl)CC (stereo not drawn),inactive: 14.7%
20,COc1cc(CCN)cc(OC)c1OC,inactive: -13.7% [at 116 µM]
21,C[C@@H]1O[C@@H](O[C@H]2C[C@@H](O)[C@]3(CO)[C@H]4[C@H](O)C[C@]5(C)[C@@H](C6=CC(=O)OC6)CC[C@]5(O)[C@@H]4CC[C@]3(O)C2)[C@H](O)[C@H](O)[C@H]1O,inactive: -38.9%
22,CCCN1CCO[C@@H]2c3cc(O)ccc3OC[C@@H]21,inactive: -0.399%
23,COc1cccc2c1C(=O)c1c(O)c3c(c(O)c1C2=O)C[C@@](O)(C(=O)CO)CC3OC1CC(N2CCOC(OC)C2)C(O)C(C)O1 (stereo partly drawn),inactive: -33.4%
24,O=C(O)CCCCCCNC1c2ccccc2CCc2ccccc21,inactive: -6.88%
25,COP(=S)(OC)Oc1ccc(S(N)(=O)=O)cc1,inactive: -3.64%
26,CCOc1ccc2nc(NC(=O)c3cccn(Cc4ccccc4Cl)c3=O)sc2c1,inactive: 2.08%
